The record followed here is US11685745B2, “Substituted benzoxazole and benzofuran compounds as PDE7 inhibitors” (Dart NeuroScience, LLC, priority 2017, dated 2023).

For this test, the target named is N-terminal truncated recombinant human PDE7B enzyme (Homo sapiens (Human), UniProt Q9NP56). Kind of test: biochemical.
Take `CN(C)C(=O)N1CCN(Cc2cc3cc(Cl)c4c(c3o2)C2(CCCCC2)NC(=O)N4)CC1` [Example 519, 4-{5′-Chloro-7′-oxo-7′,8′-dihydro-6′H-spiro[cyclohexane-1,9′-furo[2,3-f]quinazoline]-2′-ylmethyl}-N,N-dimethylpiperazine-1-carboxamide]: the 50% inhibitory concentration (IC50) was in the range of 10 to 100 nM.
For the compound `CC(C)n1cnnc1CNCc1cc2cc(Cl)c3c(c2o1)C1(CCCCC1)NC(=O)N3` [Example 520, 5′-Chloro-2′-[({[4-(propan-2-yl)-4H-1,2,4-triazol-3-yl]methyl}amino)methyl]-7′,8′-dihydro-6′H-spiro[cyclohexane-1,9′-furo[2,3-f]quinazoline]-7′-one], the IC50 fell in the range of 10 to 100 nM.
The figure for `O=C1Nc2c(Cl)cc3cc(CN4CCn5c(nnc5C(F)(F)F)C4)oc3c2C2(CCCCC2)N1` [Example 521, 5′-Chloro-2′-{[3-(trifluoromethyl)-5H,6H,7H,8H-[1,2,4]triazolo[4,3-a]pyrazin-7-yl]methyl}-7′,8′-dihydro-6′H-spiro[cyclohexane-1,9′-furo[2,3-f]quinazoline]-7′-one] is 100 to 1000 nM.
The figure for `N#CC1CN(Cc2cc3cc(Cl)c4c(c3o2)C2(CCCCC2)NC(=O)N4)C1` [Example 522, 1-{5′-Chloro-7′-oxo-7′,8′-dihydro-6′H-spiro[cyclohexane-1,9′-furo[2,3-f]quinazoline]-2′-ylmethyl}azetidine-3-carbonitrile] is 10 to 100 nM; for `O=C1Nc2c(Cl)cc3cc(CNC4CCS(=O)(=O)CC4)oc3c2C2(CCCCC2)N1` [Example 523, 4-({5′-Chloro-7′-oxo-7′,8′-dihydro-6′H-spiro[cyclohexane-1,9′-furo[2,3-f]quinazoline]-2′-ylmethyl}amino)-thiane-1,1-dione] it is 10 to 100 nM; for `CS(=O)(=O)N1CCN(Cc2cc3cc(Cl)c4c(c3o2)C2(CCCCC2)NC(=O)N4)CC1` [Example 524, 5′-Chloro-2′-[(4-methanesulfonylpiperazin-1-yl)methyl]-7′,8′-dihydro-6′H-spiro[cyclohexane-1,9′-furo[2,3-f]quinazoline]-7′-one] it is 100 to 1000 nM.
The figure for `CCOC(=O)c1cn2c(n1)CN(Cc1cc3cc(Cl)c4c(c3o1)C1(CCCCC1)NC(=O)N4)CC2` [Example 525, Ethyl 7-{5′-chloro-7′-oxo-7′,8′-dihydro-6′H-spiro[cyclohexane-1,9′-furo[2,3-f]quinazoline]-2′-ylmethyl}-5H,6H,7H,8H-imidazo[1,2-a]pyrazine-2-carboxylate] is 100 to 1000 nM; for `O=C1Nc2c(Cl)cc3cc(CN4CCC5(CC4)CC5)oc3c2C2(CCCCC2)N1` [Example 526, 2′-{6-Azaspiro[2.5]octan-6-ylmethyl}-5′-chloro-7′,8′-dihydro-6′H-spiro[cyclohexane-1,9′-furo[2,3-f]quinazoline]-7′-one] it is 100 to 1000 nM; for `O=C1Nc2c(Cl)cc3cc(CNCC(F)(F)F)oc3c2C2(CCCCC2)N1` [Example 527, 5′-Chloro-2′-{[(2,2,2-trifluoroethyl)amino]methyl}-7′,8′-dihydro-6′H-spiro[cyclohexane-1,9′-furo[2,3-f]quinazoline]-7′-one] it is 100 to 1000 nM.
Turning to `O=C1Nc2c(Cl)cc3cc(CN4CCN5CCCC5C4)oc3c2C2(CCCCC2)N1` (stereo not drawn) [Example 528, 5′-Chloro-2′-{octahydropyrrolo[1,2-a]piperazin-2-ylmethyl}-7′,8′-dihydro-6′H-spiro[cyclohexane-1,9′-furo[2,3-f]quinazoline]-7′-one], the IC50 was 100 to 1000 nM.
Consider `O=C1Nc2c(Cl)cc3cc(CN4CCN(Cc5ccco5)CC4)oc3c2C2(CCCCC2)N1` [Example 529, 5′-Chloro-2′-{[4-(furan-2-ylmethyl)piperazin-1-yl]methyl}-7′,8′-dihydro-6′H-spiro[cyclohexane-1,9′-furo[2,3-f]quinazoline]-7′-one], for which the IC50 lay in the range of 100 to 1000 nM.
On to `CC(C)N(C)Cc1cc2cc(Cl)c3c(c2o1)C1(CCCCC1)NC(=O)N3` [Example 530, 5′-Chloro-2′-{[methyl(propan-2-yl)amino]methyl}-7′,8′-dihydro-6′H-spiro[cyclohexane-1,9′-furo[2,3-f]quinazoline]-7′-one], for which the IC50 was 100 to 1000 nM.
For `O=C1Nc2c(Cl)cc3cc(CNC4CCS(=O)(=O)C4)oc3c2C2(CCCCC2)N1` (stereo not drawn) [Example 531, 3-({5′-Chloro-7′-oxo-7′,8′-dihydro-6′H-spiro[cyclohexane-1,9′-furo[2,3-f]quinazoline]-2′-ylmethyl}amino)-thiolane-1,1-dione], the IC50 lay in the range of 10 to 100 nM.
`O=C1Nc2c(Cl)cc3cc(CN4CCN(Cc5cccnc5)CC4)oc3c2C2(CCCCC2)N1` [Example 532, 5′-Chloro-2′-{[4-(pyridin-3-ylmethyl)piperazin-1-yl]methyl}-7′,8′-dihydro-6′H-spiro[cyclohexane-1,9′-furo[2,3-f]quinazoline]-7′-one]: the IC50 was in the range of 100 to 1000 nM.
The figure for `CN1CCCN(Cc2cc3cc(Cl)c4c(c3o2)C2(CCCCC2)NC(=O)N4)CC1` [Example 533, 5′-Chloro-2′-[(4-methyl-1,4-diazepan-1-yl)methyl]-7′,8′-dihydro-6′H-spiro[cyclohexane-1,9′-furo[2,3-f]quinazoline]-7′-one] is 100 to 1000 nM; for `Cc1nn(C)c(C)c1CN(C)Cc1cc2cc(Cl)c3c(c2o1)C1(CCCCC1)NC(=O)N3` [Example 535, 5′-Chloro-2′-({methyl[(trimethyl-1H-pyrazol-4-yl)methyl]amino}methyl)-7′,8′-dihydro-6′H-spiro[cyclohexane-1,9′-furo[2,3-f]quinazoline]-7′-one] it is 10 to 100 nM.
Regarding `CC(C)N1CCN(Cc2cc3cc(Cl)c4c(c3o2)C2(CCCCC2)NC(=O)N4)CC1=O` [Example 536, 5′-Chloro-2′-{[3-oxo-4-(propan-2-yl)piperazin-1-yl]methyl}-7′,8′-dihydro-6′H-spiro[cyclohexane-1,9′-furo[2,3-f]quinazoline]-7′-one], the IC50 was 100 to 1000 nM.
The figure for `CCN(Cc1cc2cc(Cl)c3c(c2o1)C1(CCCCC1)NC(=O)N3)C1CCOC(C)(C)C1` (stereo not drawn) [Example 537, 5′-Chloro-2′-{[(2,2-dimethyloxan-4-yl)(ethyl)amino]methyl}-7′,8′-dihydro-6′H-spiro[cyclohexane-1,9′-furo[2,3-f]quinazoline]-7′-one] is 100 to 1000 nM; for `O=C1Nc2c(Cl)cc3cc(CN4CCN(C(=O)N5CCCC5)CC4)oc3c2C2(CCCCC2)N1` [Example 538, 5′-Chloro-2′-{[4-(pyrrolidine-1-carbonyl)piperazin-1-yl]methyl}-7′,8′-dihydro-6′H-spiro[cyclohexane-1,9′-furo[2,3-f]quinazoline]-7′-one] it is 10 to 100 nM; for `O=C1Nc2c(Cl)cc3cc(CNCc4cnco4)oc3c2C2(CCCCC2)N1` [Example 539, 5′-Chloro-2′-{[(1,3-oxazol-5-ylmethyl)amino]methyl}-7′,8′-dihydro-6′H-spiro[cyclohexane-1,9′-furo[2,3-f]quinazoline]-7′-one] it is 100 to 1000 nM.
The figure for `CCCNCc1cc2cc(Cl)c3c(c2o1)C1(CCCCC1)NC(=O)N3` [Example 540, 5′-Chloro-2′-[(propylamino)methyl]-7′,8′-dihydro-6′H-spiro[cyclohexane-1,9′-furo[2,3-f]quinazoline]-7′-one] is 100 to 1000 nM; for `Cn1nccc1CNCc1cc2cc(Cl)c3c(c2o1)C1(CCCCC1)NC(=O)N3` [Example 541, 5′-Chloro-2′-({[(1-methyl-1H-pyrazol-5-yl)methyl]amino}methyl)-7′,8′-dihydro-6′H-spiro[cyclohexane-1,9′-furo[2,3-f]quinazoline]-7′-one] it is 10 to 100 nM; for `O=C1Nc2c(Cl)cc3cc(CN4CCN(C5COC5)CC4)oc3c2C2(CCCCC2)N1` [Example 542, 5′-Chloro-2′-{[4-(oxetan-3-yl)piperazin-1-yl]methyl}-7′,8′-dihydro-6′H-spiro[cyclohexane-1,9′-furo[2,3-f]quinazoline]-7′-one] it is 100 to 1000 nM.
For the compound `CN(CCc1ccccn1)Cc1cc2cc(Cl)c3c(c2o1)C1(CCCCC1)NC(=O)N3` [Example 543, 5′-Chloro-2′-({methyl[2-(pyridin-2-yl)ethyl]amino}methyl)-7′,8′-dihydro-6′H-spiro[cyclohexane-1,9′-furo[2,3-f]quinazoline]-7′-one], the IC50 lay in the range of 10 to 100 nM.
The figure for `COCCN(C)Cc1cc2cc(Cl)c3c(c2o1)C1(CCCCC1)NC(=O)N3` [Example 544, 5′-Chloro-2′-{[(2-methoxyethyl)(methyl)amino]methyl}-7′,8′-dihydro-6′H-spiro[cyclohexane-1,9′-furo[2,3-f]quinazoline]-7′-one] is 100 to 1000 nM; for `Cc1n[nH]c(C)c1CCN(C)Cc1cc2cc(Cl)c3c(c2o1)C1(CCCCC1)NC(=O)N3` [Example 546, 5′-Chloro-2′-({[2-(3,5-dimethyl-1H-pyrazol-4-yl)ethyl](methyl)amino}methyl)-7′,8′-dihydro-6′H-spiro[cyclohexane-1,9′-furo[2,3-f]quinazoline]-7′-one] it is 10 to 100 nM.
The figure for `CCN(CCN(C)C)Cc1cc2cc(Cl)c3c(c2o1)C1(CCCCC1)NC(=O)N3` [Example 547, 5′-Chloro-2′-({[2-(dimethylamino)ethyl](ethyl)amino}methyl)-7′,8′-dihydro-6′H-spiro[cyclohexane-1,9′-furo[2,3-f]quinazoline]-7′-one] is 100 to 1000 nM; for `O=C1Nc2c(Cl)cc3cc(CN4CCC(O)C4)oc3c2C2(CCCCC2)N1` (stereo not drawn) [Example 548, 5′-Chloro-2′-[(3-hydroxypyrrolidin-1-yl)methyl]-7′,8′-dihydro-6′H-spiro[cyclohexane-1,9′-furo[2,3-f]quinazoline]-7′-one] it is 100 to 1000 nM; for `O=C1Nc2c(Cl)cc3cc(CNCc4ccc(N5CCOCC5)nc4)oc3c2C2(CCCCC2)N1` [Example 549, 5′-Chloro-2′-[({[6-(morpholin-4-yl)pyridin-3-yl]methyl}amino)methyl]-7′,8′-dihydro-6′H-spiro[cyclohexane-1,9′-furo[2,3-f]quinazoline]-7′-one] it is 100 to 1000 nM.
The figure for `CCCN(C)Cc1cc2cc(Cl)c3c(c2o1)C1(CCCCC1)NC(=O)N3` [Example 550, 5′-Chloro-2′-{[methyl(propyl)amino]methyl}-7′,8′-dihydro-6′H-spiro[cyclohexane-1,9′-furo[2,3-f]quinazoline]-7′-one] is 100 to 1000 nM.

As usually defined, the IC50 is the concentration that gives 50% inhibition.
